Several values for one entry are separate records, joined by “and”; a condition that tells them apart may be missing. Identical values can stand only once. The whole screen tested about 390,000 compounds, of which about 17,000 (4.4%) were called active. This list was built around the results that the source calls inconclusive (neither active nor inactive); the mix of calls is not that of the screen. Calls come from the whole dose curve; as a rule, active = well fitted inhibition curve with a large enough effect; inconclusive = small, poorly fitted or top-dose-only effect; inactive = no such curve, though single readings can be large or run the other way. Potencies of inconclusive entries are doubtful fits and often do not repeat.
The compounds below were run against Lysine-specific demethylase 4A (Homo sapiens) (UniProt O75164) (assay: qHTS Assay for Inhibitors of JMJD2A-Tudor Domain). Details: AlphaScreen JMJD2A-Tudor / H3K4me3 peptide binding; series mostly up to 114 µM.
Chain of UniProt O75164 (O75164 whole entry, looked up, the tested form may be a part): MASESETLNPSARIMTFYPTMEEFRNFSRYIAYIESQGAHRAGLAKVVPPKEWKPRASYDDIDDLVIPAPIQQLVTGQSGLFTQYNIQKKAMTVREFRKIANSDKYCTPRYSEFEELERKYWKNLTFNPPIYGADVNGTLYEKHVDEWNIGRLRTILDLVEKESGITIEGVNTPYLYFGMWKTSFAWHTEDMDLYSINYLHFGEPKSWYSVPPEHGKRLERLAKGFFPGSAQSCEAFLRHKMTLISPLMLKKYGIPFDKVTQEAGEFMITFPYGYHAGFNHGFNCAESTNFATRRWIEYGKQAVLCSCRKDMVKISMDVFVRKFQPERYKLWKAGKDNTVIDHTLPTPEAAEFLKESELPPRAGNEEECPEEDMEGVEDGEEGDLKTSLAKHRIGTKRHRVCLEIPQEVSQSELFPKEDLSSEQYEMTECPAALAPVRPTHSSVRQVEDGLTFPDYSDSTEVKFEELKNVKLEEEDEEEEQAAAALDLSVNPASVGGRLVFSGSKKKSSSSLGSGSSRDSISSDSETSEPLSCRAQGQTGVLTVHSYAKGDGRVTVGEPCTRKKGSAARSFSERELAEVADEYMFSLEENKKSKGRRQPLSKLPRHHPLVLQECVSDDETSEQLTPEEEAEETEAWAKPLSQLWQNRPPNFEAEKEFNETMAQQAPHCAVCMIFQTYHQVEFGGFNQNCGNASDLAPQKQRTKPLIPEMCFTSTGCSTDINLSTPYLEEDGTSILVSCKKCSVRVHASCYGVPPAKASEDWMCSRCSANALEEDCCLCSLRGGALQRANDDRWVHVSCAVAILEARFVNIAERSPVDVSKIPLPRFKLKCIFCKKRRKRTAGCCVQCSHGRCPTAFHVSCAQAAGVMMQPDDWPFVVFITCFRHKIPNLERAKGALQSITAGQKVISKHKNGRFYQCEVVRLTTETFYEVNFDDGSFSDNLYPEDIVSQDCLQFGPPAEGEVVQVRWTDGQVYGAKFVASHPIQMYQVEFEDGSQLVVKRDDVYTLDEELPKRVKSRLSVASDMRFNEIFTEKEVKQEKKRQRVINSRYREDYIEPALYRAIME
With CCCOc1ccc(N2C(=O)CC(N3CCN(c4nc5ccccc5s4)CC3)C2=O)cc1 (stereo not given) the Potency was “inactive”.
For Cc1nc(Nc2ccc(Cl)cc2)c2nnn(Cc3ccccc3)c2n1, the Potency was active: 17.8 µM.
For COc1cccc(NC(=O)CN(C)CC(=O)Nc2ccc(C)c([N+](=O)[O-])c2)c1, the Potency was inconclusive: 44.7 µM [inhibitor, full curve].
For CC1CCN(C(=O)CSc2nnc(Cc3cccn3C)n2-c2ccc(F)cc2)CC1, the Potency was inconclusive: 22.4 µM [inhibitor, full curve].
With COc1ccccc1/C=C/C=N/n1c(-c2cc(C)[nH]n2)n[nH]c1=S the Potency was active: 7.94 µM.
With Cc1ccc(C)c(/C=N/n2cc(-c3ccccc3)[nH]c2=S)c1 the Potency was inconclusive: 39.8 µM [inhibitor, single point].
With O=C(O)CCCCCN1C(=O)C(O)=C(C(=O)/C=C/c2ccccc2)C1c1ccccc1[N+](=O)[O-] (stereo not given) the Potency was inconclusive: 56.2 µM [inhibitor, partial curve].
Cc1c(C(=O)N2CCCCC2)c(S(=O)(=O)N2CCC(C)CC2)c(C)n1C was tested, and the Potency was inconclusive: 35.5 µM [inhibitor, single point].
For CCOc1ccc(/C=N/NC(=O)c2ccccc2C)cc1CN1CC2CC(C1)c1cccc(=O)n1C2 (stereo not given), the Potency was “inactive”.
With COc1cc(OC)c2c(-c3ccccc3)cc(=O)oc2c1C(CCN1CCCCC1)c1ccc2c(c1)OCO2 (stereo not given) the Potency was inconclusive: 28.2 µM [inhibitor, partial curve] and inconclusive: 50.1 µM [inhibitor, partial curve].
O=c1cc(-c2ccc(F)cc2)nc(SCc2nc(-c3ccc(Cl)cc3)no2)[nH]1 was tested, and the Potency was “inactive”.
In the case of CCCCCCCCCCOC(=O)Cn1c(COc2ccc(OC)cc2)[n+](C)c2ccccc21, the Potency is reported as inconclusive: 89.1 µM [inhibitor, partial curve].
With C/C(=N\N=C(/N)SC1CC(=O)N(c2ccc(Br)cc2)C1=O)c1cccs1 (stereo not given) the Potency was inconclusive: 50.1 µM [inhibitor, partial curve].
In the case of COc1cccc(N=Nc2ccc(O)c3ncccc23)c1, the Potency is reported as active: 17.8 µM.
In the case of S=c1[nH]nc(NCCCN2CCOCC2)s1, the Potency is reported as active: 3.55 µM.
For C(=C\c1ccco1)/c1nc2ccccc2[nH]1, the Potency was “inactive”.
With COc1cc(OC)c2ccc(=O)oc2c1C(CCN1CCCC1)c1ccc(N(C)C)cc1 (stereo not given) the Potency was active: 56.2 µM.
Cc1cc(C)c(NC(=O)CNC(=O)c2cc([N+](=O)[O-])ccc2N2CCOCC2)c(C)c1 was tested, and the Potency was “inactive”.
In the case of COc1cc(C(=O)NCC(c2ccc(Cl)cc2)N2CCOCC2)cc(OC)c1OC (stereo not given), the Potency is reported as “inactive”.
With Cc1ccc(-c2ccc(/C=C3\C(=O)ON=C3c3ccccc3)o2)c([N+](=O)[O-])c1 the Potency was active: 22.4 µM.

Reference: PubChem BioAssay AID504339 (National Center for Advancing Translational Sciences (NCATS), 2011)
Note: nearly all actives have a fitted effect of over 50% in size.
Potency is the fitted concentration of half-maximal effect; tags give direction and shape of the fitted curve.
